Results from patent publication US20060057694A1, “Rat receptor tyrosine knase, kdr” (priority 2003, published 2006).

What was measured:
[1] = system: rat KDR intracellular domain; assay: Autophosphorylation assay of rat KDR (Western blot, anti-PY antibody); format: biochemical; conditions: purified GST-tagged protein 2.5 μg/ml, 1 mM ATP, 25° C.
Experimental: To determine the functional consequence of the substitution of an Asp residue at position 1083 of optimized rat KDR with Gly, as occurs in the published rat KDR sequence, RK7 (the fragment representing the intracellular domain of optimized rat KDR) was altered at position 1083 to contain a Gly (G) by site-directed mutagenesis. Both RK7 and the RK7(G1083) variant were expressed as GST-tagged fusion proteins in insect cells using a baculovirus system. The proteins were evaluated in terms of their abilities to autophosphorylate.
Purified recombinant GST-tagged RK7 (2.5 μg/ml) and RK7 (G1083) (2.5 μg/ml) were pre-incubated separately at 25° C. for 10 min in 10 mM MgCl2, 2 mM MnCl2, 100 mM NaCl, 50 mM Tris-HCl (pH 7.2), 0.5 mg/ml BSA, 0.5 mM Na3VO4 and 0.5 mM TCEP (Tris[2-carboxyethylphosphine] hydrochloride (Pierce)) in two microcentrifuge tubes. The autophosphorylation reactions were initiated by addition of a small volume of 10 mM ATP to each of the tubes to yield a final ATP concentration of 1 mM. Aliquots were withdrawn from each of the reactions at various times and mixed immediately with an equal volume of 50 mM EDTA to stop the autophosphorylation reaction. The EDTA-containing samples were then mixed with 2× Tris-Glycine SDS sample buffer (Novex) containing 100 mM dithiothreitol and boiled for 5 min. The samples were electrophoresed on two 8% acrylamide-Tris-Glycine gels (Novex). […]

[2] = system: synthetic biotinylated peptide substrate (biotinylated EQEDEPEGDYFEWLE); assay: Tyrosine phosphorylation of a synthetic biotinylated peptide substrate (time-resolved fluorescence); format: biochemical; conditions: 1 μM substrate, 10 μM ATP, serial-diluted enzyme, 35 min at room temperature
Experimental: To further investigate the functional consequence of substitution of the Asp residue at position 1083 of the optimized rat KDR with Gly, as occurs in the published rat KDR sequence, purified GST-RK7 and RK7 (G1083) were evaluated in terms of their abilities to phosphorylate a synthetic biotinylated peptide substrate.
A master reaction mix was prepared which contained 1 μM substrate (biotinylated EQEDEPEGDYFEWLE; SEQ ID NO:10), 10 μM ATP, 10 mM MgCl2, 2 mM MnCl2, 100 mM NaCl, 50 mM Tris-HCl (pH 7.2), 0.5 mg/ml BSA, 0.5 mM Na3VO4, and 0.5 mM TCEP. The master mix was distributed to the wells (50 μl per well) of a black 96-well plate. The kinase reactions were initiated by addition of 10 μl of GST-RK7 or GST-RK7 (G1083) pre-serial-diluted in the above buffer less the substrate and ATP. Each reaction was allowed to proceed for 35 min at room temperature with shaking and then stopped by addition of 50 μl of a quench buffer containing 0.8 μg/ml Eu(K)-PT-66 (an europium cryptate-labeled anti-phosphotyrosine antibody), 10 μg/ml streptavidin-XL665, 100 mM EDTA, 0.5 mM KF, 0.1% Triton X-100. The quenched reactions were incubated for 5 hours at room temperature and then read in Discovery (Packard), a time-resolved fluorescence detector.

B1: GST-RK7: GST-6xHis-tagged fusion of RK7, the intracellular kinase domain fragment of optimized rat KDR (SEQ ID NO:18) (protein)
chain: [about 200 residues omitted]SDPMGHHHHHHGRRRASVAAGILVPRGSPGLDGICSIEEFRPPWKRANEGELKTGYLSIVMDPDELPLDERCERLPYDASKWEFPRDRLKLGKPLGRGAFGQVIEADAFGIDKTATCKTVAVKMLKEGATHSEHRALMSELKILIHIGHHLNVVNLLGACTKPGGPLMVIVEFCKFGNLSTYLRGKRNEFVPYKSKGARFRSGKDYVGELSVDLKRRLDSITSSQSSASSGFVEEKSLSDVEEEEASEELYKDFLTLEHLICYSFQVAKGMEFLASRKCIHRDLAARNILLSEKNVVKICDFGLARDIYKDPDYVRKGDARLPLKWMAPETIFDRVYTIQSDVWSFGVLLWEIFSLGASPYPGVKIDEEFCRRLKEGTRMRAPDYTTPEMYQTMLDCWHEDPNQRPAFSELVEHLGNLLQANAQQDGKDYIVLPMSETLSMEEDSGLSLPTSPVSCMEEEEVCDPKFHYDNTAGISHYLQNSKRKSRPVSVKTFEDIPLEEPEVKVIPDDSQTDSGMVLASEELKTLEDRNKLSPSFGGMMPSKSRESVASEGSNQTSGYQSGYHSDDTDTTVYSSDEAGLLKLVDVAGHVDSGTTLRSSPV
- ability to autophosphorylate [1]: rapid autophosphorylation
- tyrosine kinase activity on synthetic biotinylated peptide substrate [2]: tyrosine-phosphorylated the peptide substrate
- tyrosine kinase activity on synthetic biotinylated peptide substrate ([2]; listed as RK7): able to tyrosine phosphorylate the synthetic peptide
